# Source: the supplement of paper PMC8728848
# This is one part of the list.
# B1: Als3-41 (Candida albicans) (protein)
# chain: KTITGVFNSFNSLTWSNAATYNYKGPGTPTWNAVLGWSLDGTSASPGDTFTLNMPCVFKFTTSQTSVDLTAHGVKYATCQFQAGEEFMTFSTLTCTVSNTLTPSIKALGTVTLPLAFNVGGTGSSVDLEDSKCFTAGTNTVTFNDGGKKISINVDFERSNVDPKGYLTDSRVIPSLNKVSTLFVAPQCANGYTSGTMGFANTYGDVQIDCSNIHVGITKGLNDWNYPVSSESFSYTKTCSSNGIFITYKNVPAGYRPFVDAYISATDVNSYTLSYANEYTCAGGYWQRAPFTLRWTGYRNSDAGSNGIVIVATTRTVTDSTTAVTTLPFDPNRDKTKTIEILKPIPTTTITTSYVGVTTSYLTKTAPIGETATVIVD
# Columns and labels:
# Experiment in all cases: glycan array binding signal (z-score within array); higher = stronger binding
# Conditions in all cases: glycan notation: IUPAC condensed, linker removed
# [1] = target: GlcNAc(b1-3)GalNAc
# How it was run: (§1)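 Columns mapping to the same glycan were averaged after glycan names were converted to IUPAC-condensed notation. The data come from 3228 arrays in the Consortium for Functional Glycomics database, limited to those with an available protein sequence. Binding is reported as a within-array Z-score averaged across arrays of one protein sequence and across linkers.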
# [2] = target: GlcNAc(b1-3)Man
# How it was run: as §1
# [3] = target: GlcNAc(b1-3)[GlcNAc(b1-4)][GlcNAc(b1-6)]GlcNAc
# How it was run: as §1
# [4] = target: GlcNAc(b1-3)[GlcNAc(b1-6)]Gal(b1-4)GlcNAc
# How it was run: as §1
# [5] = target: GlcNAc(b1-3)[GlcNAc(b1-6)]GalNAc
# How it was run: as §1
# [6] = target: GlcNAc(b1-4)Gal(b1-4)GlcNAc
# How it was run: as §1
# [7] = target: GlcNAc(b1-4)GlcNAc
# How it was run: as §1
# [8] = target: GlcNAc(b1-4)GlcNAc(b1-4)GlcNAc
# How it was run: as §1
# [9] = target: GlcNAc(b1-4)GlcNAc(b1-4)GlcNAc(b1-4)GlcNAc(b1-4)GlcNAc
# How it was run: as §1
# [10] = target: GlcNAc(b1-4)GlcNAc(b1-4)GlcNAc(b1-4)GlcNAc(b1-4)GlcNAc(b1-4)GlcNAc
# How it was run: as §1
# [11] = target: GlcNAc(b1-4)[GlcNAc(b1-6)]GalNAc
# How it was run: as §1
# [12] = target: GlcNAc(b1-6)Gal(b1-4)GlcNAc
# How it was run: as §1
# [13] = target: GlcNAc(b1-6)GalNAc
# How it was run: as §1
# [14] = target: GlcNAc6S(b1-3)Gal(b1-4)GlcNAc
# How it was run: as §1
# [15] = target: Kdn(a2-3)Gal(b1-3)GalNAc
# How it was run: as §1
# [16] = target: Kdn(a2-3)Gal(b1-3)GlcNAc
# How it was run: as §1
# [17] = target: Kdn(a2-3)Gal(b1-4)Glc
# How it was run: as §1
# [18] = target: Kdn(a2-3)Gal(b1-4)GlcNAc
# How it was run: as §1
# [19] = target: Kdn(a2-3)Gal(b1-4)[Fuc(a1-3)]GlcNAc
# How it was run: as §1
# [20] = target: Kdn(a2-6)Gal(b1-4)GlcNAc
# How it was run: as §1
# [21] = target: Man(a1-2)Man(a1-2)Man(a1-3)Man
# How it was run: as §1
# [22] = target: Man(a1-2)Man(a1-2)Man(a1-6)[Man(a1-3)]Man
# How it was run: as §1
# [23] = target: Man(a1-2)Man(a1-3)Man
# How it was run: as §1
# [24] = target: Man(a1-2)Man(a1-3)[Man(a1-2)Man(a1-6)]Man
# How it was run: as §1
# [25] = target: Man(a1-2)Man(a1-3)[Man(a1-2)Man(a1-6)]Man(a1-6)[Man(a1-2)Man(a1-2)Man(a1-3)]Man
# How it was run: as §1
# [26] = target: Man(a1-2)Man(a1-3)[Man(a1-2)Man(a1-6)]Man(a1-6)[Man(a1-2)Man(a1-2)Man(a1-3)]Man(b1-4)GlcNAc(b1-4)GlcNAc
# How it was run: as §1
# [27] = target: Man(a1-2)Man(a1-3)[Man(a1-6)]Man(a1-6)[Man(a1-2)Man(a1-3)]Man(b1-4)GlcNAc(b1-4)GlcNAc
# How it was run: as §1
# [28] = target: Man(a1-2)Man(a1-6)[Man(a1-3)]Man(a1-6)[Man(a1-2)Man(a1-2)Man(a1-3)]Man
# How it was run: as §1
# [29] = target: Man(a1-2)Man(a1-6)[Man(a1-3)]Man(a1-6)[Man(a1-2)Man(a1-2)Man(a1-3)]Man(b1-4)GlcNAc(b1-4)GlcNAc
# How it was run: as §1
# [30] = target: Man(a1-3)[Man(a1-6)]Man
# How it was run: as §1
# [31] = target: Man(a1-3)[Man(a1-6)]Man(a1-6)[Man(a1-2)Man(a1-3)]Man(b1-4)GlcNAc(b1-4)GlcNAc
# How it was run: as §1
# [32] = target: Man(a1-3)[Man(a1-6)]Man(a1-6)[Man(a1-3)]Man
# How it was run: as §1
# [33] = target: Man(a1-3)[Man(a1-6)]Man(a1-6)[Man(a1-3)]Man(b1-4)GlcNAc(b1-4)GlcNAc
# How it was run: as §1
# [34] = target: Man(a1-3)[Man(a1-6)]Man(b1-4)GlcNAc(b1-4)GlcNAc
# How it was run: as §1
# [35] = target: Man(a1-3)[Man(a1-6)]Man(b1-4)GlcNAc(b1-4)[Fuc(a1-6)]GlcNAc
# How it was run: as §1
# [36] = target: Man(a1-6)Man
# How it was run: as §1
# [37] = target: Man(b1-4)GlcNAc
# How it was run: as §1
# [38] = target: MurNAc(b1-4)GlcNAc
# How it was run: as §1
binder,measurement,setting,value
B1,glycan array binding signal (z-score),[1],-0.301
same,glycan array binding signal (z-score),[2],0.501
same,glycan array binding signal (z-score),[3],-0.146
same,glycan array binding signal (z-score),[4],-0.312
same,glycan array binding signal (z-score),[5],-0.287
same,glycan array binding signal (z-score),[6],-0.278
same,glycan array binding signal (z-score),[7],1.79
same,glycan array binding signal (z-score),[8],-0.322
same,glycan array binding signal (z-score),[9],-0.09
same,glycan array binding signal (z-score),[10],-0.256
same,glycan array binding signal (z-score),[11],-0.059
same,glycan array binding signal (z-score),[12],-0.132
same,glycan array binding signal (z-score),[13],-0.189
same,glycan array binding signal (z-score),[14],-0.039
same,glycan array binding signal (z-score),[15],0.948
same,glycan array binding signal (z-score),[16],-0.191
same,glycan array binding signal (z-score),[17],-0.048
same,glycan array binding signal (z-score),[18],-0.355
same,glycan array binding signal (z-score),[19],0.132
same,glycan array binding signal (z-score),[20],0.735
same,glycan array binding signal (z-score),[21],-0.082
same,glycan array binding signal (z-score),[22],-0.275
same,glycan array binding signal (z-score),[23],-0.299
same,glycan array binding signal (z-score),[24],-0.261
same,glycan array binding signal (z-score),[25],-0.353
same,glycan array binding signal (z-score),[26],-0.168
same,glycan array binding signal (z-score),[27],0.006
same,glycan array binding signal (z-score),[28],-0.295
same,glycan array binding signal (z-score),[29],-0.239
same,glycan array binding signal (z-score),[30],-0.189
same,glycan array binding signal (z-score),[31],-0.11
same,glycan array binding signal (z-score),[32],-0.173
same,glycan array binding signal (z-score),[33],-0.308
same,glycan array binding signal (z-score),[34],-0.254
same,glycan array binding signal (z-score),[35],-0.013
same,glycan array binding signal (z-score),[36],-0.022
same,glycan array binding signal (z-score),[37],0.697
same,glycan array binding signal (z-score),[38],0.244
